Data reported in PubChem BioAssay AID1347165 (National Center for Advancing Translational Sciences (NCATS), 2019).
Among all 220,000 compounds or so, about 5,700 (2.6%) were called active. This list was built around the results that the source calls inconclusive (neither active nor inactive); the mix of calls is not that of the screen. Calls follow the shape of the dose curve; as a rule, active = well fitted inhibition curve with a large enough effect; inconclusive = small, poorly fitted or top-dose-only effect; inactive = no such curve, though single readings can be large or run the other way. Where the call is inconclusive, the potency comes from a doubtful curve fit.

Biological target: Lysine-specific demethylase 5B (Homo sapiens) (UniProt Q9UGL1)
UniProt Q9UGL1, sequence (Q9UGL1 whole entry, looked up): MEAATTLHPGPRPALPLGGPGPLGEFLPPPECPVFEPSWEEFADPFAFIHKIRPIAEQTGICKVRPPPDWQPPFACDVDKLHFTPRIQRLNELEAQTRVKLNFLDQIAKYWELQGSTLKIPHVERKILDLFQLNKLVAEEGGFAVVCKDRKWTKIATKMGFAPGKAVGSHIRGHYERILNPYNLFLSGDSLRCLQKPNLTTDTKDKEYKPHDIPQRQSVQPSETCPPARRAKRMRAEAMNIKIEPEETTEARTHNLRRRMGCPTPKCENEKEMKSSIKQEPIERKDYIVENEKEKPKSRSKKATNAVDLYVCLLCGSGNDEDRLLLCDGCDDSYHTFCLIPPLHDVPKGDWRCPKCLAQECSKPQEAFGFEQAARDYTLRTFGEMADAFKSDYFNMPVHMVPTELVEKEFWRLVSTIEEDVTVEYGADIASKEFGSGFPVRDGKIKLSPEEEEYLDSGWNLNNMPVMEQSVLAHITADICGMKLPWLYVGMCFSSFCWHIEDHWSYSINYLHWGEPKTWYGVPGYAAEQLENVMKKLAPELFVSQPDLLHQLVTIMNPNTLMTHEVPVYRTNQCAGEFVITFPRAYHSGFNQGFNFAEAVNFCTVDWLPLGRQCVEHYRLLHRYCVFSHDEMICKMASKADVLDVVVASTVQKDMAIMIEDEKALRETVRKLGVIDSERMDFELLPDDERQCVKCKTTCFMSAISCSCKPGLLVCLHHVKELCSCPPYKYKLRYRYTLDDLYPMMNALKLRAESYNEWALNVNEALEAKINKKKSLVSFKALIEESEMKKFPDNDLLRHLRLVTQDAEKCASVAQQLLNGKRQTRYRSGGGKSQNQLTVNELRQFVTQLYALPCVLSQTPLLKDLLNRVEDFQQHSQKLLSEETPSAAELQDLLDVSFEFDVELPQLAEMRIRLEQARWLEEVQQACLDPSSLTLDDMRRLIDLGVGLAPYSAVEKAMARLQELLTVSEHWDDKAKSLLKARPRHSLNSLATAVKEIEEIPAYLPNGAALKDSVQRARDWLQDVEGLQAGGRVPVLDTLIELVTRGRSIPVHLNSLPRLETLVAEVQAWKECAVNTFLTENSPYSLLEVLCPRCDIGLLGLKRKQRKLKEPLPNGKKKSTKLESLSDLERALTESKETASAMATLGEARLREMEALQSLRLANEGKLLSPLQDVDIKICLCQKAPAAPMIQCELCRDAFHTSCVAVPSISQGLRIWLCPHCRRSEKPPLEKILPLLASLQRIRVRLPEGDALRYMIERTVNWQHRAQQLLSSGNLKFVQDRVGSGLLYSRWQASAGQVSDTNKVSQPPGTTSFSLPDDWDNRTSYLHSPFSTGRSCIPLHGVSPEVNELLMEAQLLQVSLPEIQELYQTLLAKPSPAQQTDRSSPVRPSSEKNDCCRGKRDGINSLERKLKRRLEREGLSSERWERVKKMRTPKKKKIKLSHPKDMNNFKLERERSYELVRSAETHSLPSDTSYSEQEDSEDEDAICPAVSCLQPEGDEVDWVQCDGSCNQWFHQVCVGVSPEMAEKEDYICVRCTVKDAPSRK
Assay: Primary screen for KDM5B Histone Demethylases FDH-coupled qHTS; also: nearly all actives have a fitted effect of over 70% in size; as to activity change, negative = inhibition: 0% is about no effect
Settings: FDH-coupled NADH fluorescence (FDH is formaldehyde dehydrogenase); activity change, negative = inhibition: at 57.7 µM (top of the series) unless noted
Procedure, shortened: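 Coupled FDH/NAD⁺ fluorescence readout. KDM5BΔAP 200 nM final; compound titration, 10 min RT preincubation; substrate mix 12.5 µM H3K4me3, 25 µM 2-OG, 50 µM Fe(II), 100 µM ascorbate, 0.25 mM NAD⁺, 0.25 U/mL FDH; ΔRFU over 30 min.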
Potency is read from the fitted curve at half-maximal effect; tags tell the direction and shape of the fitted curve.

Row | Structure (SMILES) | Potency | activity change, negative = inhibition
1 | CC1(c2ccccc2)NC(=O)N(NC(=O)c2n[nH]c(=O)c3ccccc23)C1=O (stereo unspecified) | inconclusive: 12.6 µM [inhibitor, partial curve, poor fit] | 
2 | COc1ccc2nc3n(c2c1)[C@@H](CNC(=O)c1ccccn1)COC3 | inconclusive: 35.5 µM [inhibitor, partial curve, poor fit] | 
3 | CCn1cc(-c2ccccc2)cc1C(=O)NC1CCCC1 | inconclusive: 31.6 µM [inhibitor, partial curve] | 
4 | Cc1ccccc1C(=O)N1CCC(N(Cc2csc(-c3cccs3)n2)S(C)(=O)=O)CC1 | inconclusive: 28.2 µM [inhibitor, partial curve, poor fit] | 
5 | Cc1noc(C)c1C(=O)N[C@@H]1CN(S(C)(=O)=O)C[C@H]1CN(C)C | inactive | 
6 | O=C(O)C1CCN(C(=O)c2ccoc2)CC1 | inactive | 
7 | N#CCCNC(=O)CSc1nc(C2CC2)nc2ccccc12 | inactive | 
8 | c1ccc(-c2nc(C3CCNC3)no2)nc1 (stereo unspecified) | inconclusive: 28.2 µM [inhibitor, partial curve, poor fit] | 
9 | CN(C)C[C@@H]1CN(c2ccncn2)C[C@H]1NC(=O)Cc1ccsc1 | inactive | 
10 | COCCC(=O)N1CCCCC1c1noc(COc2ccc(C)cc2)n1 (stereo unspecified) | inactive | 
11 | COc1ccc2cc(C(=O)NC3CCN(C(C)=O)CC3)[nH]c2c1 | inconclusive: 25.1 µM [inhibitor, partial curve, poor fit] | 
12 | N#CCCN1CCN(c2ccc(NS(=O)(=O)c3ccc(F)cc3Cl)c(C(=O)O)c2)CC1 | inconclusive: 15.8 µM [inhibitor, partial curve, poor fit] | 
13 | Cc1noc(C(=O)Nc2ccc(C#N)cc2)c1Cl | inconclusive: 31.6 µM [inhibitor, single point] | 
14 | Cc1nc2ccc(S(=O)(=O)N(CC(=O)N3CCC(C)CC3)Cc3ccccc3)cc2s1 | inactive | 
15 | NS(=O)(=O)c1ccc(CCNC(=O)CCn2c(=O)c3cccn3c3cccnc32)cc1 | inconclusive: 35.5 µM [inhibitor, single point] | 
16 | COc1ccccc1NC(=O)Nc1ccnn1C1CCN(C(=O)CN)CC1 | inconclusive: 10 µM [inhibitor, partial curve, poor fit] | 
17 | CCN(Cc1cc2ccc(C)cc2[nH]c1=O)C(=O)c1ccccc1C | inactive | 
18 | COc1cc(/C=C(/C#N)c2ccccn2)cc(Cl)c1OC(F)F | inactive | 
19 | Cc1ccc(-c2cn3c(n2)sc2cc(C(=O)NC4CCCCC4)ccc23)cc1 | inconclusive: 17.8 µM [inhibitor, partial curve, poor fit] | 
20 | Cc1cccc(NC(=O)c2ccc(F)c(S(=O)(=O)N3CCN(c4ccc(F)cc4)CC3)c2)c1 | inconclusive: 25.1 µM [inhibitor, single point] | 
21 | CCc1cccc(NC(=O)Nc2cn(CC(C)C)c(=O)c3ccccc23)c1 | inconclusive: 14.1 µM [inhibitor, partial curve, poor fit] | 

Row | Structure (SMILES) | Potency | activity change, negative = inhibition
22 | CCN1c2cc(C(=O)Nc3ccc(F)c(F)c3)ccc2C(=O)N2CCCCCC21 (stereo unspecified) | inconclusive: 25.1 µM [inhibitor, partial curve, poor fit] | 
23 | COc1cccc(CN2CCCC(c3nc(-c4cnccn4)no3)CCNC(=O)CC2)c1OC (stereo unspecified) | inconclusive: 20 µM [inhibitor, partial curve, poor fit] | 
24 | Cc1cccc(C(=O)NC(CC(C)C)c2nnc3n2CCNCC3)n1 (stereo unspecified) | inconclusive: 20 µM [inhibitor, partial curve, poor fit] | 
25 | Cc1ccccc1-c1nc2cc(NC(=O)c3cccs3)ccc2o1 | inconclusive: 28.2 µM [inhibitor, partial curve, poor fit] | 
26 | COc1ccc(-c2cc(NC(=O)c3ccc(S(=O)(=O)NCC4CCCO4)cc3)ccc2OC)cc1 (stereo unspecified) | inactive | 
27 | Cc1cccc(-c2cc(C(=O)O)c3c(-c4ccc(F)cc4)[nH]nc3n2)c1 | inconclusive: 25.1 µM [inhibitor, partial curve, poor fit] | 
28 | Cc1ccccc1C1CCCN1Cc1ncccc1C(=O)O (stereo unspecified) | inconclusive: 17.8 µM [inhibitor, partial curve, poor fit] | 
29 | Cc1ccccc1OCC(=O)N1CCc2nc3cc[nH]n3c(=O)c2C1 | inconclusive: 28.2 µM [inhibitor, partial curve, poor fit] | 
30 | Cc1ccc(-c2cc3nccc(-c4ccccc4O)n3n2)cc1 | inconclusive: 22.4 µM [inhibitor, single point] | 
31 | O=C(O)CCSc1nnc(-c2ccc(Cl)cc2Cl)o1 |  | inconclusive: -33.9% [inhibitor]
32 | COCc1ccc2c(c1)c(OC(C)(C)C(=O)NC1CCC(O)CC1)nn2Cc1ccccc1 (stereo unspecified) | active: 25.1 µM | 
33 | Cc1cc(F)ccc1NC(=O)C1CCN(c2cnc3ccccc3n2)CC1 | inactive | 
34 | O=C(NCc1ccccc1)c1ccc2c(c1)sc1nc(-c3ccc(F)cc3)cn12 | inconclusive: 6.31 µM [inhibitor, partial curve, poor fit] | 
35 | COc1cccc(-c2cn3c(n2)sc2cc(C(=O)NCCc4ccccc4)ccc23)c1 | inconclusive: 28.2 µM [inhibitor, partial curve, poor fit] | 
36 | Cc1ccc(C)c(N2CCN(CCCNC(=O)c3ccc4nc(C(C)C)oc4c3)CC2)c1 | inconclusive: 17.8 µM [inhibitor, partial curve, poor fit] | 
37 | COc1ccc(NC(=O)CC2=C3CCCCC3NC2=O)cn1 (stereo unspecified) | inconclusive: 31.6 µM [inhibitor, partial curve, poor fit] | 
38 | N#Cc1cc2c(nc1N1CCN(C(C(=O)O)c3c[nH]c4ccccc34)CC1)CCCC2 (stereo unspecified) | inconclusive: 22.4 µM [inhibitor, partial curve, poor fit] | 
39 | CCS(=O)(=O)Nc1ccc(C2(C(=O)NCc3cccc(F)c3)CCCCC2)cc1 | inactive | 
40 | CCn1cnnc1-c1nn(C)c2c1CNCC2 | inconclusive: 8.91 µM [inhibitor, partial curve, poor fit] | 
41 | Cc1ccc(-c2cn3c(n2)sc2cc(C(=O)NC4CCCCCC4)ccc23)c(C)c1 | inconclusive: 14.1 µM [inhibitor, partial curve, poor fit] | 
